Laboratory results from PubChem BioAssay AID623894 (Johns Hopkins Ion Channel Center, 2012).
A number of entries come with more than one value. This is not the full list of results. An entry can have further records. Results that share an entry are repeated measurements (runs, samples, wells, individuals or studies). Brackets tell where a record comes from. Letters count within one entry.

Target: Potassium channel subfamily K member 3 (Rattus norvegicus) (UniProt O54912)
Test: rat KCNK3 off-target channel block – cell-based, FluxOR thallium flux, CRC set 3, selectivity assay for KCNK9 inhibitor project, SAR follow-up (AID 623894)
Settings: KCNK3-expressing cell line, FluxOR thallium flux fluorescence
Method in brief: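 Assay system: tetracycline-induced KCNK3 CHO cells / Times: dye loading 90 min, compound exposure 20 min, room temperature, dark / Signal: kinetic thallium-flux fluorescence with FluxOR dye, 110 s post-stimulus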

Sequence of UniProt O54912 (O54912 whole entry, looked up): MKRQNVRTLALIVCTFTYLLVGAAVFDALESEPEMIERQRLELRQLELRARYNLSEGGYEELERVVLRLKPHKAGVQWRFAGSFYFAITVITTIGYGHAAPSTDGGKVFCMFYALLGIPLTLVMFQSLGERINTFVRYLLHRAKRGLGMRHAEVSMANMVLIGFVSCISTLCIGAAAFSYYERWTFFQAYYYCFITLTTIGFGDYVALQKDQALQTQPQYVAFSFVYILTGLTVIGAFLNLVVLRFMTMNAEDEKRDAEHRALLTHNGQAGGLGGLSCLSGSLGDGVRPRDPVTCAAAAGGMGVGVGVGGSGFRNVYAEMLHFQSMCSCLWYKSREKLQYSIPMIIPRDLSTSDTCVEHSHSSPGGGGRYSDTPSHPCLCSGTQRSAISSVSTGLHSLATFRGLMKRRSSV

SMILES	IC50
C[C@@H]([C@@H]1CC2CC[C@H]1C2)n1c(-c2ccsc2)n[nH]c1=S	1.61 µM [sample A] and 20.4 µM [sample B]
C[C@H]([C@@H]1CC2CC[C@H]1C2)n1c(-c2ccsc2)n[nH]c1=S	470 nM [sample A] and 5.09 µM [sample B]
